This note sets out measurements from patent US20150209319A1, “COMPOSITIONS COMPRISING AN ANTIBODY AND CAMOSTAT MESYLATE (CM)” (Glaxo Group Limited, priority 2012, published 2015).

The subject of one assay is IL-6. The experiment in a line: ELISA binding of intact mAb from SIF incubations to coated ligand IL-6. On the procedure: (§1) Monoclonal antibodies were incubated in SIF in the presence and absence of CM as in Examples 1 and 2, and ability to bind to their ligand was assessed using an ELISA. In brief, Nunc Maxisorp™ plates were coated with ligand (in this Example, IL-6 and IL-23) overnight. Plates were washed and blocked with bovine serum albumin. SIF samples were diluted and added to the plate, along with a standard curve of mAb, then incubated at room temperature to allow binding. Plates were washed and a peroxidase-conjugated anti-human Fc region antibody was added to the wells. After incubation, the plate was washed and incubated with OPD substrate to obtain a colorimetric signal. The reaction was stopped with sulphuric acid and absorbance read at 490 nm.
(In general: In an ELISA, binding on a coated surface is turned into a signal by an enzyme label.)

In a further assay the test system is IL-23. The assay can be described thus: ELISA binding of intact mAb from SIF incubations to coated ligand IL-23. On the procedure: as §1
The mark [1] stands for this setting: SIF alone, by 1 hour, relative to 0 h time-point = 100%.

B1: anti-IL6: an anti-IL-6 antibody (SEQ ID NOs: 1 and 2) (antibody)
heavy: QVQLQESGPGLVKPSETLSLTCTVSGFSLSTSGMGVGWIRQPPGKGLEWIGHIWWDDDKYYNPSLKSRVTISVDTSKNQFSLKLSSVTAADTAVYYCARSYDDYLYYALDYWGQGTLVTVSS[gap - human IgG1 constant region with L235A G237A (EU numbers)]
light: DIQMTQSPSSLSASVGDRVTITCRASQSISDYLHWYQQKPGKAPKLLIKSVSQSISGVPSRFSGSGSGTDFTLTISSLQPEDFATYYCQNGHSFPLTFGQGTKLEIKRTVAAPSVFIFPPSDEQLKSGTASVVCLLNNFYPREAKVQWKVDNALQSGNSQESVTEQDSKDSTYSLSSTLTLSKADYEKHKVYACEVTHQGLSSPVTKSFNRGEC
modifications: Amino acid sequence identified using molecular biology techniques.
As for B1, the “intact bound mAb lost (anti-IL6 binding ELISA)” value in the assay on IL-6 (setting [1]) is reported as “over 90%”. The “bound intact mAb detectable (anti-IL6 binding ELISA)” value with IL-6 (SIF with CM, at 21 h) is recorded as “substantial amounts were still detectable”.

B2: anti-IL23: an anti-IL-23 antibody (SEQ ID NOs: 3 and 4) (antibody)
heavy: QVQLVQSGAEVKKPGSSVKVSCKASGYTFTSYGITWVRQAPGQGLEWMGENYPRSGNIYYNEKFKGRVTITADKSTSTAYMELSSLRSEDTAVYYCARAEFISTVVAPYYYALDYWGQGTLVTVSS[gap - human IgG1 constant region]
light: DIVMTQSPDSLAVSLGERATINCKASKKVTIFGSTSALHWYQQKPGQPPKLIYNLAKPESGVPDRFSGSGSGTDFTLTISSLQAEDVAVYYCLQNKEVPYTFGGGTKVEIKRTVAAPSVFIFPPSDEQLKSGTASVVCLLNNFYPREAKVQWKVDNALQSGNSQESVTEQDSKDSTYSLSSTLTLSKADYEKHKVYACEVTHQGLSSPVTKSFNRGEC
modifications: Amino acid sequence identified using molecular biology techniques.
Take B2: the “intact bound mAb lost (anti-IL23 binding ELISA)” value in the assay with IL-23 (setting [1]) is reported as “over 90%”. Moreover, the “bound intact mAb detectable (anti-IL23 binding ELISA)” value in the assay on IL-23 (SIF with CM, at 21 h) is “substantial amounts were still detectable”.
